According to PubChem BioAssay AID360 (National Center for Advancing Translational Sciences (NCATS), 2006):
In all, about 48,000 compounds went through this assay and about 550 (1.1%) were called active. About 4% were inconclusive and are not listed. Cut-off read from the data, not from the text of the source: active = potency below about 15 µM; inconclusive = mostly about 16 µM to 33 µM; inactive = weaker than that. This is one part of the list.

Target: Lysosomal acid glucosylceramidase (Homo sapiens) (UniProt P04062)
Experiment: Glucocerebrosidase;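 note: the screen sought inhibitors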
Details: purified enzyme, resorufin glucoside fluorescence (screen aimed at inhibitors), 20 min
Summary of the method: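 Compounds titrated against 0.2 nM normal enzyme, 30 uM resorufin beta-D-glucopyranoside substrate, citrate/phosphate buffer with taurocholate and tween-20, pH 5.9. Reaction ran 20 min at room temperature; fluorescence (Ex 548/Em 600) gave AC50.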
Potency is the fitted concentration of half-maximal effect.

Chain of UniProt P04062 (P04062 whole entry, looked up): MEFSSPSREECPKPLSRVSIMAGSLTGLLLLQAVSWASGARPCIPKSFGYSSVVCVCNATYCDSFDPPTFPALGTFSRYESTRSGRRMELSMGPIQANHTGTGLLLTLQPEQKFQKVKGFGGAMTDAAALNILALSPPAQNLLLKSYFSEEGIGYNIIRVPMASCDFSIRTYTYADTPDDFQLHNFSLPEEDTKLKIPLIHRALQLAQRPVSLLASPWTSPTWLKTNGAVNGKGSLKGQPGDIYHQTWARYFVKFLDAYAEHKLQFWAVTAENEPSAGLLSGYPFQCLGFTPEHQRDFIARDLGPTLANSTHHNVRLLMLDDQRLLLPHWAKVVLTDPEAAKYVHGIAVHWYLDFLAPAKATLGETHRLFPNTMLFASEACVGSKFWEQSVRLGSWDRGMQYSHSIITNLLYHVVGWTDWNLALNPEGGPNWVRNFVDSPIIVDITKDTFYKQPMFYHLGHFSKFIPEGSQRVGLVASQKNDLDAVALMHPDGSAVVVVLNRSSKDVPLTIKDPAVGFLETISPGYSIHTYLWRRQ

Row | SMILES | Potency
1 | CCOC(=O)CCN=Cc1c(O)n(-c2ccc(Br)cc2)c(=O)[nH]c1=O | inactive: > 76.9 µM
2 | COCCCn1c(N)c(C(=O)OCCOC)c2nc3ccccc3nc21 | inactive: > 76.9 µM
3 | O=C(Cn1ncc2c3ccccc3n(Cc3ccccc3)c2c1=O)N1CCC2(CC1)OCCO2 | inactive: > 76.9 µM
4 | COc1ccc(CCC(=O)N2CCC3(CC2)OCCO3)cc1 | inactive: > 76.9 µM
5 | ClC1=CCC2CN(CCN3CCCCC3)CC2C1 (stereo not drawn) | inactive: > 76.9 µM
6 | O=C1N(CN2CCOCC2)c2ccccc2C1(O)c1c[nH]c2ccccc12 (stereo not drawn) | inactive: > 76.9 µM
7 | CC1(C)C2CC=C(CN3CCOCC3)C1C2 (stereo not drawn) | inactive: > 76.9 µM
8 | CN1C(=O)N(C)C(=O)C2(Cc3c(nc4ccccn4c3=O)N3CCC(Cc4ccccc4)CC32)C1=O (stereo not drawn) | active: 13.3 µM
9 | CCCCn1c(O)c(C=Nc2c(C)n(C)n(-c3ccccc3)c2=O)c(=O)[nH]c1=O | inactive: > 76.9 µM
10 | CCc1nnc(NC(=O)CCc2nc(C3=CCN(C)CC3)no2)s1 | inactive: > 76.9 µM
11 | Cc1ccc(C)c(NC2=NCCCS2)c1 | inactive: > 76.9 µM
12 | O=P(C(c1c[nH]c2ccccc12)N1CCOCC1)(N1CCOCC1)N1CCOCC1 (stereo not drawn) | inactive: > 76.9 µM
13 | Cc1ccc2c(c1)N(CCC(=O)N1CCC3(CC1)OCCO3)C(=O)CO2 | inactive: > 76.9 µM
14 | Cc1[nH]c2c(C(F)(F)F)cccc2c1CCN | inactive: > 76.9 µM
15 | OCC1(CO)COC(c2cccnc2)N1 (stereo not drawn) | inactive: > 76.9 µM
16 | CCN(CC)CCCN=C(C)c1c(O)n(C2CCCCC2)c(=O)[nH]c1=O | inactive: > 76.9 µM
17 | CC(=O)N1CCN(c2ccc(N=Cc3c(O)n(-c4ccc(Cl)cc4)c(=O)[nH]c3=O)cc2)CC1 | inactive: > 76.9 µM
18 | CCc1nc2ccccc2c(=O)n1-c1cccc(OC)c1 | inactive: > 76.9 µM
19 | CC(=NCc1ccc2c(c1)OCO2)c1c(O)n(C)c(=O)n(C)c1=O | inactive: > 76.9 µM
20 | CN(C)P(=NC(=S)c1cccn1C)(N(C)C)N(C)C | inactive: > 76.9 µM

Row | SMILES | Potency
21 | CCOc1ccccc1-n1c(O)c(C=NCCCN(CC)CC)c(=O)[nH]c1=O | inactive: > 76.9 µM
22 | COc1cc(OC)c(OC)cc1CNC(C)C(O)c1ccccc1 (stereo not drawn) | inactive: > 76.9 µM
23 | COc1ccccc1-n1c(-c2ccoc2)nc2ccccc2c1=O | inactive: > 76.9 µM
24 | NCCCP(=O)(O)CCc1ccccc1 | inactive: > 76.9 µM
25 | CSc1nnc(C2CCNCC2)n1C | inactive: > 76.9 µM
26 | CC(C)CCn1c(N)c(C(=O)OCC2CCCO2)c2nc3ccccc3nc21 (stereo not drawn) | inactive: > 76.9 µM
27 | CCC(=NCCC1=CCCCC1)c1c(O)[nH]c(=O)[nH]c1=O | inactive: > 76.9 µM
28 | NC1CCCCC1N=Cc1c(O)n(CCc2ccc(F)cc2)c(=O)[nH]c1=O (stereo not drawn) | inactive: > 76.9 µM
29 | COc1ccc(S(=O)(=O)NCc2ccc(C(=O)N3CCC4(CC3)OCCO4)cc2)cc1 | inactive: > 76.9 µM
30 | CCOC(=O)N(CC)c1ccc(C(O)(C(=O)OC)C(F)(F)F)cc1 (stereo not drawn) | inactive: > 76.9 µM
31 | CCC(=Nc1ccccc1NC(C)=O)c1c(O)n(C)c(=O)n(C)c1=O | inactive: > 76.9 µM
32 | O=C(Cc1ccccc1)Oc1ccccc1N1C(=O)CCC1=O | inactive: > 76.9 µM
33 | Cn1c(O)c(C=NC2CC3CCC2(C)C3(C)C)c(=O)[nH]c1=O (stereo not drawn) | inactive: > 76.9 µM
34 | COc1ccc(CCn2c(O)c(C=NCCCO)c(=O)[nH]c2=O)cc1OC | inactive: > 76.9 µM
35 | CCC(=NC1CC1)c1c(O)n(-c2ccc(OC)cc2)c(=O)[nH]c1=O | inactive: > 76.9 µM
36 | CCC(=NCC1CCCO1)c1c(O)n(-c2ccc(Cl)cc2)c(=O)[nH]c1=O (stereo not drawn) | inactive: > 76.9 µM
37 | O=P1(Nc2cccnc2)COc2ccccc2OC1 | inactive: > 76.9 µM
38 | CCOC(=O)c1c(N)n(CCN2CCCCC2)c2nc3ccccc3nc12 | inactive: > 76.9 µM
39 | O=C1C2CCCN2C(c2cccnc2)N1c1nccs1 (stereo not drawn) | inactive: > 76.9 µM
40 | Cc1c(C(=O)N2CCC3(CC2)OCCO3)oc2ccc(S(=O)(=O)N3CCOCC3)cc12 | inactive: > 76.9 µM

Row | SMILES | Potency
41 | O=C(c1ccc(Cl)cc1)C12CN3CN(CN(C3)C1)C2 | inactive: > 76.9 µM
42 | CC(=NCC1CCCO1)c1c(O)n(Cc2ccccc2)c(=O)[nH]c1=O (stereo not drawn) | inactive: > 76.9 µM
43 | CCCCCCN=C(C)c1c(O)n(CCCC)c(=O)[nH]c1=O | inactive: > 76.9 µM
44 | CC(C)(C)c1nc(N2CCN(C(=O)c3ccco3)CC2)c2nnn(Cc3ccccc3Cl)c2n1 | inactive: > 76.9 µM
45 | O=C(CCCC1=NS(=O)(=O)c2ccccc2N1)N1CCC2(CC1)OCCO2 | inactive: > 76.9 µM
46 | CN(C)C(=O)Oc1ccc(Cl)c2ccccc12 | inactive: > 76.9 µM
47 | COc1ccccc1N=C1SCCCN1C | inactive: > 76.9 µM
48 | CC12CCCCC1=[N+]([O-])CN2O (stereo not drawn) | inactive: > 76.9 µM
49 | O=C1NC(=O)[C@]2(Cc3ccccc3N3CCN(c4ccccc4)CC32)C(=O)N1Cc1ccccc1 (stereo partly drawn) | inactive: > 76.9 µM
50 | COc1cccc(C2=NOC(C(=O)N3CCC4(CC3)OCCO4)C2)c1 (stereo not drawn) | inactive: > 76.9 µM
51 | Cc1ccc(C2N(c3cc(C)on3)C(=O)C3CCCN32)cc1 (stereo not drawn) | inactive: > 76.9 µM
52 | CN1C(=O)N(C)C(=O)C2(Cc3cc(N)ccc3N3CCN(c4ccccc4F)CC32)C1=O (stereo not drawn) | inactive: > 76.9 µM
53 | CC12CCCCC1N(O)CN2O (stereo not drawn) | inactive: > 76.9 µM
54 | O=C(c1cc(S(=O)(=O)N2CCOCC2)ccc1F)N1CCC2(CC1)OCCO2 | inactive: > 76.9 µM
55 | CN=C(SCc1ccccc1)c1c(O)n(C)c(=O)n(C)c1=O | inactive: > 76.9 µM
56 | CC(=Nc1ccc2c(c1)CCC2)c1c(O)n(C)c(=O)n(C)c1=O | inactive: > 76.9 µM
57 | CC(=O)Nc1cc(C(=O)N2CCC3(CC2)OCCO3)ccc1S(=O)(=O)c1ccc(C)cc1 | inactive: > 76.9 µM
58 | CCSc1nnc([C@@H](N)Cc2c[nH]c3ccccc23)o1 | inactive
